Data on 41 compounds can be found in ChEMBL document CHEMBL4888484, “Replenishing the malaria drug discovery pipeline: Screening and hit evaluation of the MMV Hit Generation Library 1 (HGL1) against asexual blood stage Plasmodium falciparum ,using a nano luciferase reporter read-out” (2022).

Among all 150,000 compounds or so, about 540 (0.36%) showed an effect of 50% or more. The list shows a part of the results.

The test system of this experiment is Plasmodium falciparum. Nature of the experiment: Primary screen in NF54 nanoGlo assay, in single point, at 2uM, 72h; a lower Z score goes with more inhibition. The format is functional, Erythrocyte. Particulars: timepoint 72 hour.
Consider `CCc1nn(CC(=O)N2CCCC2)c(=O)c2cc3ccccc3n12`, for which the “% Inhibition” value is -15% and the Z score is given as 2.89.
Regarding `O=C(CNC(=O)C1CC1c1ccc(F)c(F)c1)Nc1ccc(F)cc1` (configuration not stated), the “% Inhibition” value was -4% and the Z score was 0.81.
In the case of `CC(NC(CO)c1ccccc1)C1CN(Cc2ccccc2)CCO1` (configuration not stated), the “% Inhibition” value is recorded as -14% and the Z score turned out to be 2.28.
As for `CC(C)(C)[C@H](NC1CCN(CC(N)=O)CC1)c1cc2ccccc2o1`, the “% Inhibition” value came to 0% and the Z score is 0.01.
With `CNC(=O)[C@H]1CC[C@H](CNc2nccc(N)n2)CC1`, the “% Inhibition” value was 4% and the Z score was -0.78.
In the case of `CCC(C)NCC(O)Cn1c(-c2ccccc2)c(-c2ccccc2)c2cc(C)ccc21` (configuration not stated), the “% Inhibition” value was found to be 93% and the Z score is -10.06.
For `Cc1ccc(C(=O)Nc2nc3nc(-c4ccccc4)cc(O)n3n2)cc1`, the “% Inhibition” value is 32% and the Z score is reported as -3.65.
For `CC(C)(C)N(Cc1ccccn1)C(=O)[C@@H]1CC=CCC1`, the “% Inhibition” value is 5% and the Z score is -0.5.
Turning to `COc1cccc([C@H]2CC(=O)Nc3c2cnn3C)c1OCc1ccccc1F`, the “% Inhibition” value stood at 28% and the Z score was -3.14.
For the compound `C[C@@](CO)(NC(=O)Nc1ccccn1)c1cccc(C(F)(F)F)c1`, the “% Inhibition” value is -4% and the Z score stood at 0.6.
As to `CC(C)O[C@@H]1CCN(c2nnc(-c3ncccn3)n2C)C1`, the “% Inhibition” value came out at 3% and the Z score is -0.56.
In the case of `CC1CC(C)CN(S(=O)(=O)c2ccc(NC(=O)C3CCC3)cc2)C1` (configuration not stated), the “% Inhibition” value is on record as -11% and the Z score stood at 1.7.
In the case of `Cc1onc(C(=O)N(CCO)Cc2cccs2)c1CO`, the “% Inhibition” value was -17% and the Z score came out at 2.49.
As for `Cc1nnc(CN2C(=O)N[C@@]3(CCCCc4ccccc43)C2=O)s1`, the “% Inhibition” value is listed as -6% and the Z score is on record as 0.82.
For `CCCn1ccnc1CN1C[C@@H]2CC[C@H]1CN(S(=O)(=O)N(C)C)C2` the same measures were -8% and 1.32.
For `CC(C)(C)C(=O)N1CCc2[nH]nc(-c3ccc(F)c(F)c3)c2C1` the same measures were -5% and 0.81.
Take `COc1ccc(-c2nc(-c3ccc(OCc4cccc(F)c4)c(OC)c3)no2)c(OC)c1`: the “% Inhibition” value was -25% and the Z score amounted to 2.44.
Regarding `O=C(Cc1ccc(CO)cc1)N1CCC([C@@H](O)CCc2ccccc2)CC1`, the “% Inhibition” value was 5% and the Z score is given as -0.7.
As for `C=CCn1cc(CN(Cc2c(C)nn(C)c2C)C(C)C)c(C)n1`, the “% Inhibition” value was -13% and the Z score is reported as 1.85.
For the compound `Cc1cnccc1CN(C)C(=O)c1ccc2cccnc2n1`, the “% Inhibition” value is recorded as -10% and the Z score came to 1.07.
In the case of `Cc1cccc2nc(C(=O)N3CCS(=O)(=O)CC3)c(F)n12`, the “% Inhibition” value is recorded as 6% and the Z score is given as -0.84.
The matching figures for `COC(=O)c1cc(OC)ccc1-c1cccc(C(=O)N2CCNC[C@@H]2C)c1`: -17% and 1.67.
As to `Cc1csc(NC(=O)c2cnc(C(C)C)s2)n1`, the “% Inhibition” value is reported as 4% and the Z score is reported as -0.54.
As to `O=C(c1ccc2c(c1)COCO2)N1CCC[C@H](N2CCCCCC2)C1`, the “% Inhibition” value is -14% and the Z score is 1.36.
In the case of `CC(C)CN(Cc1cc(NC(=O)NC(C)C)ccc1N(C)C)C(=O)CC(C)(C)C`, the “% Inhibition” value is on record as -9% and the Z score is reported as 1.21.
For `O=C(CC[C@H]1CCOC1)N1Cc2cnn(-c3ccccc3)c2C1` the same measures were -10% and 1.09.
The matching figures for `COc1ccc(CN2CC(=O)N(c3ccc(OC)c(Cl)c3)C3CS(=O)(=O)CC32)cc1` (configuration not stated): -5% and 0.67.
Regarding `Cc1ccc(C2CC2C(=O)N2CCC3(CC2)NC(=O)NC3=O)cc1C` (configuration not stated), the “% Inhibition” value is recorded as 4% and the Z score was -0.62.
With `COCc1nnc(-c2cc3ccccc3cc2O)o1`, the “% Inhibition” value was determined as 12% and the Z score was -1.43.
Turning to `O=C(O)[C@H]1CN(C(=O)c2ccc3c(c2)OCO3)C[C@@H]1c1ccc(F)cc1`, the “% Inhibition” value was -3% and the Z score is recorded as 0.43.
In the case of `COc1c(C)cc([C@H]2CCc3nc(C(=O)Nc4ccc(C)cc4)cn3C2)cc1C`, the “% Inhibition” value was 0% and the Z score is reported as -0.02.
For `O=C(c1cc2ccccc2c(CN2CCCc3cc(Cl)ccc32)c1O)N1CCOCC1`, the “% Inhibition” value is reported as -5% and the Z score is listed as 0.94.
For `N#Cc1c(NC(=O)C2CCN(S(=O)(=O)c3ccc(Cl)cc3)CC2)sc2c1CCC2` the same measures were 4% and -0.59.
The matching figures for `COC(=O)c1ccc(O)c(NC(=O)C(F)(F)F)c1`: 3% and -0.44.
For `COCCN(CC1CN(CC(O)Cc2ccccc2)CCO1)C(=O)c1ccccc1` (configuration not stated) the same measures were -5% and 0.45.
As to `CC(C)=Cc1c(-c2ccccc2)ncn1C[C@H]1CNCCO1`, the “% Inhibition” value is reported as -13% and the Z score turned out to be 1.23.
The matching figures for `CN(Cc1ccc(F)cc1C(F)(F)F)Cc1ncnn1C`: 0% and -0.04.
In the case of `COC(C)c1nc(CN(C)C(=O)N2C(C)CCCC2C)cs1` (configuration not stated), the “% Inhibition” value was 2% and the Z score was -0.25.
Consider `Cc1ccncc1C(=O)NC[C@H]1CCCCS1(=O)=O`, for which the “% Inhibition” value is recorded as -7% and the Z score is reported as 1.07.
`O=C1NC2(CCOCC2)Nc2ccccc21`: the “% Inhibition” value is reported as -10% and the Z score stood at 1.53.
For the compound `CCc1cnccc1C(=O)OCc1ccc2[nH]nnc2c1`, the “% Inhibition” value turned out to be 9% and the Z score is -1.08.
